In the supplement of paper PMC10126150:
Sequences with one replicate were seen in a single cluster, so their values are uncertain.

These sequences were tested on ATP (assay: switch fluorescence ratio, 500 uM ATP over buffer (Cy3 cluster intensity, sum of 5 cycles each) (fold (ratio)); higher = stronger signal-on switching upon ATP binding; sequences stand for … in TCGTCGGCAGCGTCAGATGTGTATAAGAGACAGTTTTTTTTTTTTTTTTTTTTTTTTT…TC). Details: aptamer strand: ATP DNA aptamer (quencher-CACCTGGGGGAGTATTGCGGAGGAAGG + anchor), 100 nM annealed; ATP concentration: 500 uM; one replicate.
Procedure, shortened: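 Clusters with intensities outside 100-1000 RFU were excluded. The remaining Cy3-labelled switching-strand clusters on a modified Illumina MiSeq flow-cell had been annealed to 100 nM quencher-labelled ATP aptamer and imaged in selection buffer, then after 15 min with 500 uM ATP at 22 °C, for five cycles separated by NaOH stripping and re-annealing. The fluorescence ratio, averaged per switch-domain sequence, is each cluster's summed target-cycle Cy3 intensity over its summed buffer-cycle Cy3 intensity.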
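Note: ATP exposure 15 min at 22 °C before imaging.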

Row | Sequence | switch fluorescence ratio
1 | TTATTTCTTA | 0.983
2 | TTATTTTACT | 1.04
3 | TTATTTTGCC | 1.02
4 | TTCAAACGGG | 1.03
5 | TTCAAATGC | 1.01
6 | TTCAACCGCG | 1.32
7 | TTCAACGAGG | 0.957
8 | TTCAAGAAGA | 0.997
9 | TTCAAGAAGG | 1.01
10 | TTCAAGAGGT | 1
11 | TTCAAGCTGT | 1.03
12 | TTCAATATGG | 1.05
13 | TTCACAACCA | 1.02
14 | TTCACACGAG | 1.02
15 | TTCACAGAGC | 1.02
16 | TTCACTAA | 1.08
17 | TTCACTCCCT | 1.34
18 | TTCACTCGAA | 1
19 | TTCACTCGGT | 0.98
20 | TTCACTGCCT | 1.13
21 | TTCACTTGAC | 1.09
22 | TTCACTTGGC | 1.03
23 | TTCAGAACCT | 1.73
24 | TTCAGAATGA | 1
25 | TTCAGCAAAG | 1.12
26 | TTCAGCCTTG | 0.965

Row | Sequence | switch fluorescence ratio
27 | TTCAGCGCTA | 1.1
28 | TTCAGCGTTT | 1.04
29 | TTCAGGCACA | 1.11
30 | TTCAGGCGTC | 1.04
31 | TTCAGGGCCA | 0.99
32 | TTCAGGTATC | 1.01
33 | TTCAGGTCTT | 0.934
34 | TTCAGTAAGT | 1.04
35 | TTCAGTACGG | 1.03
36 | TTCAGTCATT | 1
37 | TTCAGTGCGT | 1.04
38 | TTCATAACTC | 1.05
39 | TTCATAGTCA | 0.981
40 | TTCATCGCTT | 1.09
41 | TTCATCTCCA | 1.04
42 | TTCATGCATT | 0.964
43 | TTCATGGTAG | 0.954
44 | TTCATTCGTG | 1.03
45 | TTCATTCTTG | 1.01
46 | TTCCAAATAT | 1.01
47 | TTCCAACCAG | 1.05
48 | TTCCACCGTT | 1.19
49 | TTCCATAGTA | 0.988
50 | TTCCATCACT | 1.09
51 | TTCCATCAGG | 1.31
52 | TTCCATGTTC | 0.964

Row | Sequence | switch fluorescence ratio
53 | TTCCCCGGCC | 1.53
54 | TTCCCGCCCC | 2.37
55 | TTCCCTCACG | 1.08
56 | TTCCGAAGGG | 0.98
57 | TTCCGCTTGT | 1.27
58 | TTCCGGCATG | 1.07
59 | TTCCGGGTGG | 0.997
60 | TTCCGGTAGC | 1.33
61 | TTCCGTGGGG | 1.02
62 | TTCCGTTCGA | 1.07
63 | TTCCGTTGG | 1.35
64 | TTCCTCATT | 1.02
65 | TTCCTCGGAC | 2.24
66 | TTCCTGTATG | 1.01
67 | TTCCTTAAGC | 1.01
68 | TTCCTTATAC | 1.99
69 | TTCCTTCATC | 1.59
70 | TTCGACTACC | 1.18
71 | TTCGACTCAC | 1.09
72 | TTCGAGCACT | 1.27
73 | TTCGAGCCAT | 2.36
74 | TTCGAGCTTG | 0.953
75 | TTCGAGTTAT | 1
76 | TTCGATAGC | 0.999
77 | TTCGATCCTG | 0.979
78 | TTCGATGGG | 0.996

Row | Sequence | switch fluorescence ratio
79 | TTCGCAACAC | 2.24
80 | TTCGCAGAC | 3.9
81 | TTCGCCACT | 0.949
82 | TTCGCCTCAC | 0.97
83 | TTCGCGCC | 1.11
84 | TTCGCGCGCA | 1.09
85 | TTCGCTGTGT | 0.989
86 | TTCGGACAGA | 1
87 | TTCGGACGCC | 1.24
88 | TTCGGATACC | 0.997
89 | TTCGGATCTC | 0.962
90 | TTCGGCCGGC | 1.02
91 | TTCGGCGTAC | 1.12
92 | TTCGGGCAAG | 1.16
93 | TTCGGGCACC | 1.01
94 | TTCGGTAAT | 1.63
95 | TTCGGTACCT | 1.06
96 | TTCGGTAGGT | 0.987
97 | TTCGGTCT | 0.982
98 | TTCGTAAGCT | 1.07
99 | TTCGTCGGCA | 1.15
100 | TTCGTCGTTG | 0.944
101 | TTCGTCTCCG | 1.02
102 | TTCGTGAAAT | 1.01
103 | TTCGTGCGAA | 0.996
104 | TTCGTGCTCG | 1.02

Row | Sequence | switch fluorescence ratio
105 | TTCGTGGAGA | 1.03
106 | TTCGTGTGAA | 0.994
107 | TTCGTTACG | 0.981
108 | TTCGTTCCGA | 1.05
109 | TTCGTTGTCT | 1.01
110 | TTCTAAAACT | 1.01
111 | TTCTAAAATA | 1.03
112 | TTCTATGTCG | 0.97
113 | TTCTATTAT | 0.965
114 | TTCTCACTGT | 1
115 | TTCTCATATG | 0.991
116 | TTCTCCACGG | 1.27
117 | TTCTCCTAGT | 0.996
118 | TTCTCGGGCC | 0.995
119 | TTCTCTCCGG | 1.22
120 | TTCTCTGTCG | 0.983
121 | TTCTGAGAGA | 1.03
122 | TTCTGATGAG | 1.01
123 | TTCTGGCGTC | 1.04
124 | TTCTGGGTAT | 0.976
125 | TTCTGGTTAG | 0.979
126 | TTCTGTGTAG | 0.987
127 | TTCTTAGACT | 1.01
128 | TTCTTAGCAT | 1.02
129 | TTCTTCGTAG | 1.02
130 | TTCTTGAGGG | 0.956

Row | Sequence | switch fluorescence ratio
131 | TTCTTGGCAC | 1.04
132 | TTCTTGTGTA | 0.963
133 | TTCTTTAACG | 0.981
134 | TTCTTTACCG | 1.04
135 | TTCTTTGCGC | 1
136 | TTCTTTTGTC | 1.01
137 | TTGAAACCAG | 1.03
138 | TTGAAACGCA | 1.07
139 | TTGAAATATC | 1.02
140 | TTGAACGGTT | 1.04
141 | TTGAAGGCG | 1.05
142 | TTGAAGTTGA | 0.959
143 | TTGACACGCA | 1.14
144 | TTGACCACTA | 1.07
145 | TTGACCAGAG | 1.01
146 | TTGACCGGCA | 1.02
147 | TTGACGGATT | 1.05
148 | TTGACTTAGG | 0.997
149 | TTGAGCAAAA | 1.06
150 | TTGAGCAACC | 1.18
151 | TTGAGCTCAT | 1.02
152 | TTGAGTACCT | 1.1
153 | TTGAGTAGCC | 1.03
